Source: PubChem BioAssay AID686979 (National Center for Advancing Translational Sciences (NCATS), 2013)
In all, about 420,000 compounds went through this assay and about 50,000 (12%) were called active. The inconclusive results got no clear call from the source; some entries with a clear call stand among them for comparison. Calls come from the whole dose curve; as a rule, active = well fitted inhibition curve with a large enough effect; inconclusive = small, poorly fitted or top-dose-only effect; inactive = flat fitted curve, though single readings scatter. Potencies of inconclusive entries are left out as doubtful fits.

Assay: qHTS for Inhibitors of human tyrosyl-DNA phosphodiesterase 1 (TDP1): qHTS in cells in presence of CPT; note: nearly all actives have a fitted effect of over 55% in size
Conditions: chicken DT40 Tdp1-/-;hTDP1 cells + 20 nM CPT, ATP luminescence, 48 h; activity change, negative = growth inhibition: at 46.2 µM (top of the series) unless noted
In short: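 Cell growth measured by CellTiter-Glo luminescence after a minimum 48 h, 37 C compound exposure with 20 nM CPT in Tdp1-knockout DT40 cells stably expressing hTDP1, seeded 400/well; qHTS titration format.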
% is set by controls: 0 for no effect and ±100 for the full control effect; potency is the fitted concentration of half-maximal effect; tags give direction and shape of the fitted curve.

| SMILES | activity change, negative = growth inhibition | Potency |
| --- | --- | --- |
| Cc1cc(NC(=O)COc2coc(CN3CCN(c4ccccc4)CC3)cc2=O)no1 | inactive: -0.46% | – |
| Cc1[nH]c2ccccc2c1SCCNC(=O)c1ccc(S(=O)(=O)N2CCCC2)cc1 | inactive: -29.4% | – |
| Cc1n[nH]c(=O)c2c(NC(=O)CSc3ccc(F)cc3)oc(C)c12 | inactive: -7.69% | – |
| CCCn1nc(NC(=O)c2ccco2)c2cc3ccccc3nc21 | – | active: 23.1 µM |
| COc1ccc(C2C(C#N)=C(N)Oc3n[nH]c(C)c32)cc1CSc1ccccn1 (stereo not given) | – | inconclusive [inhibitor, single point] |
| CC(=O)c1ccc(OCc2cc(C(=O)N3CCCCCCC3)no2)cc1 | – | inconclusive [inhibitor, single point] |
| O=C(Cc1ccccc1)NCCc1csc2nc(-c3ccc(Cl)cc3)nn12 | – | active: 11.6 µM |
| COc1ccccc1-n1cnc2cc(NCc3cccs3)ccc21 | – | active: 0.731 µM |
| CC(C)C(NC(=O)/C=C/c1ccc(F)cc1)C(C)C | – | inconclusive [inhibitor, single point] |
| O=C(NCC(c1cccs1)N1CCOCC1)c1cc(-c2ccccn2)nc2ccccc12 (stereo not given) | inconclusive: -31.3% [inhibitor] | – |
| COc1ccc(CNC(=O)c2c3c(nc4ccccc24)C(=O)N(C2CCCCC2)C3)cc1 | – | active: 11.6 µM |
| COc1cccc(CNC(=O)c2nn(-c3ccc(C)cc3)c(=O)c3c2c2ccccc2n3C)c1 | – | inconclusive [inhibitor, partial curve] |
| COc1ccccc1CNS(=O)(=O)c1ccc2c(c1)NC(=O)CC(=O)N2 | inactive: 6.42% | – |
| Cc1cc(NC(=O)CSc2nc3cc(Cl)ccc3c(=O)n2C(C)C)no1 | – | inconclusive [inhibitor, single point] |
| Cc1ccc(S(=O)(=O)N2CC(O)CC2C(=O)Nc2ccc3c(c2)CCC3)cc1 (stereo not given) | – | inconclusive [inhibitor, single point] |
| Cc1ccc(S(=O)(=O)NC2c3cccc4cccc(c34)C2Sc2nncn2C)cc1 (stereo not given) | – | inconclusive [inhibitor, single point] |
| Cc1ccc(N=CC2=C(O)CC(c3ccc(Cl)cc3)CC2=O)cc1 (stereo not given) | inactive: -8.36% | – |
| Cc1nc2ccccc2n1Cc1ccccc1Br | – | inconclusive [inhibitor, single point] |
| CC(C)c1ccc(NC(=O)C2CCCN(S(=O)(=O)c3ccc4c(c3)C(C)(C)C(=O)N4C)C2)cc1 (stereo not given) | – | inconclusive [inhibitor, single point] |
| Cc1cc(NC(=O)c2cnn3c(C(F)(F)F)cc(-c4ccc(Br)cc4)nc23)no1 | – | inconclusive [inhibitor, partial curve] |
| N/C(=N\NC(=O)c1cccs1)c1cc2cc(Cl)ccc2oc1=O | inactive: -24.3% | – |
| O=C(c1ccc(S(=O)(=O)N2CCCCCC2)cc1)N1CCC(CN2C(=O)c3cccc4cccc(c34)C2=O)CC1 | – | inconclusive [inhibitor, single point] |
| O=C(c1cc(-c2ccncc2)nc2ccc(Cl)cc12)N1CCN(Cc2ccc3c(c2)OCO3)CC1 | – | active: 16.4 µM |
| O=C(CCN1C(=O)C2CCCCC2C1=O)N1CCN(S(=O)(=O)c2cccc(F)c2)CC1 (stereo not given) | inactive: 17.9% | – |
| CCOC(=O)c1ccc(Nc2ccc([N+](=O)[O-])cn2)cc1 | inactive: -13.4% | – |

| SMILES | activity change, negative = growth inhibition | Potency |
| --- | --- | --- |
| CN(C)c1ccnc(-n2cccc2/C=N/OCc2ccc(F)cc2Cl)c1C#N | – | inconclusive [inhibitor, single point] |
| Cc1ccc(S(=O)(=O)NCc2nc(-c3cccc(C)c3)no2)cc1 | – | inconclusive [inhibitor, partial curve] |
| O=c1[nH]c(Nc2ccccc2Cl)cc2ccccc12 | – | inconclusive [inhibitor, single point] |
| CCOC(=O)NN1C(=O)c2ccccc2NC1c1ccccc1F (stereo not given) | inactive: -8.23% | – |
| Cc1ccc(N2CC(C(=O)N3CCN(Cc4ccc5c(c4)OCO5)CC3)CC2=O)cc1 (stereo not given) | inactive: 5.04% | – |
| COc1ccc(C)cc1NC(=O)CN1CCN(S(=O)(=O)c2ccc(F)cc2)CC1 | – | inconclusive [inhibitor, single point] |
| CC(=O)N1N=C(c2ccc(C)c([N+](=O)[O-])c2)OC1(C)C | – | inconclusive [inhibitor, single point] |
| CC[C@]12c3[nH]c4cc(CCC(=O)N(C)C)ccc4c3CCN1C(=O)[C@@H](CC(=O)NC/C=C(\C)CCC=C(C)C)C[C@@H]2C(=O)N1CCN(C(=O)c2ccco2)CC1 | – | active: 10.3 µM |
| CCN(CC)c1ccc2c(C)c(-c3ccc(N)cc3)c(=O)oc2c1 | – | inconclusive [inhibitor, partial curve] |
| COc1cccc(-c2cc(C(F)(F)F)nc(N3CCCCC3)n2)c1 | inactive: -5.02% | – |
| CCOc1ccc2cc(/C=C/C(=O)c3ccco3)c(Cl)nc2c1 | – | inconclusive [inhibitor, single point] |
| O=C(CSc1nc(=O)n(CCN2CCOCC2)c2c1CCC2)Nc1ccccc1 | inactive: 18.1% | – |
| COc1ccc(C(=O)CCC(=O)Nc2ccc(N3CCN(C)CC3)cc2)cc1OC | inactive: 2.59% | – |
| Cn1ncc2c(O/N=C(\N)c3ccc(C(F)(F)F)cc3)ncnc21 | – | active: 6.51 µM |
| COc1ccccc1CNC(=O)CCCn1c(=O)c2ccccc2n(CC(=O)Nc2c(C)cc(C)cc2C)c1=O | – | inconclusive [inhibitor, single point] |
| COc1ccc(S(=O)(=O)N2CCC(C(=O)NCc3ccccn3)CC2)cc1C | inactive: -18.1% | – |
| CC(NC(=S)Nc1ccc(F)cc1)c1ccccc1 (stereo not given) | inactive: -2.86% | – |
| Cc1ccc(-c2nnc(SCC(=O)N/N=C/c3cccs3)n2-c2ccc(C)cc2)cc1 | – | inconclusive [inhibitor, single point] |
| CCOC(=O)c1sc2ccc(S(=O)(=O)N3CC(C)CC(C)C3)cc2c1N (stereo not given) | – | inconclusive [inhibitor, single point] |
| CC(=O)OCC1OC(n2cc(F)c(=O)[nH]c2=O)C(OC(C)=O)C1OC(C)=O (stereo not given) | – | active: 8.2 µM |
| CC(C)(C)C1=CC(=O)C(N2CCOCC2)=CC1=O | – | active: 7.31 µM |
| CN1CCc2c(sc3c2C(=O)NC(c2cn(Cc4ccccc4)c4ccccc24)N3)C1 (stereo not given) | – | active: 20.6 µM |
| CCC(C)(C(=O)NC1CCCCC1)N(CC1CCCO1)C(=O)CNC(=O)c1ccccc1 (stereo not given) | inactive: -11.7% | – |
| COc1ccc(OC)c2cc3ccccc3cc12 | – | active: 0.731 µM |
| Cc1c(C(=O)Oc2cccc3cccnc23)cccc1[N+](=O)[O-] | – | inconclusive [inhibitor, single point] |

| SMILES | activity change, negative = growth inhibition | Potency |
| --- | --- | --- |
| Cc1ccc2c(c1)N(C(=O)CCC(=O)NCc1ccccc1Cl)CC(C)O2 (stereo not given) | – | inconclusive [inhibitor, single point] |
| CCOC(=O)Cn1c(C)nc2c(C(=O)OCC)sc(C)c2c1=O | inactive: -0.207% | – |
| O=C(Nc1ccc(S(=O)(=O)Nc2ncccn2)cc1)c1ccccc1Cl | – | inactive |
| CN(C)c1ccc(-c2ccc3ncnc(N(C)C)c3c2)cc1 | – | active: 0.461 µM |
| CN(C)CCNC(=O)c1nn(C)c2c1CCc1ccccc1-2 | inactive: 3.74% | – |
| CNC(=S)NC1CC2CCCC(C1)N2Cc1ccco1 (stereo not given) | inactive: 9.62% | – |
| Cc1cccc(N2CCN(C(=O)c3cc4cc(F)ccc4[nH]3)CC2)c1C | – | inconclusive [inhibitor, single point] |
| O=C(Nc1cc(C(F)(F)F)ccc1Cl)c1cc(-c2ccc3c(c2)OCCO3)on1 | – | inconclusive [inhibitor, partial curve] |
| O=C(NC(c1ccccc1)c1ccc2ccccc2n1)C1CCN(CCOc2ccc(Cl)cc2)CC1 (stereo not given) | – | active: 23.1 µM |
| Cc1nc2scc(C)n2c(=O)c1S(=O)(=O)NC(C)c1ccccc1 (stereo not given) | – | inconclusive [inhibitor, single point] |
| COc1ccc(CN2CCN(C(=O)C3CC(=O)N(C4CCCCCC4)C3)CC2)c(OC)c1OC (stereo not given) | – | inconclusive [inhibitor, partial curve] |
| Cn1cc(C(=O)C(=O)N2CCc3ccccc32)c2ccccc21 | inactive: -17.3% | – |
| COc1cccc(N2CCN(C(=O)c3cc4c(s3)CCCCC4)CC2)c1 | – | inconclusive [inhibitor, single point] |
| COc1ccc(NC(=O)CCCCn2c(=O)[nH]c3ccccc3c2=O)cc1 | inactive: 9.87% | – |
| CC(NC(=O)Cn1c(=O)oc2cc(S(=O)(=O)NCc3ccccc3)ccc21)c1ccccc1 (stereo not given) | – | inconclusive [inhibitor, partial curve] |
| O=C1Cc2ccccc2C(=O)N1c1ccc(F)cc1Cl | – | inconclusive [inhibitor, partial curve] |
| COc1cc(NC(=S)N2CCN(C(c3ccccc3)c3ccccc3)CC2)cc(OC)c1 | – | inconclusive [inhibitor, single point] |
| CN(C)S(=O)(=O)c1ccc(C(=O)Nc2nnc(-c3ccco3)o2)cc1 | – | active: 20.6 µM |
| Cn1c(SCC(=O)N2CCN(c3ccccc3)CC2)nnc1-c1ccccc1 | inactive: -7.84% | – |
| Cc1cccc(NC(=O)Nc2nnc(N(C)Cc3ccccc3)s2)c1 | – | active: 14.6 µM |
| CCOCCCNc1ncnc2onc(C)c12 | inactive: -18.2% | – |
| Cc1ccc(N2CCN(S(=O)(=O)c3ccc(F)c(C)c3)CC2)c(C)c1 | – | inconclusive [inhibitor, single point] |
| Cc1ccc(Cl)cc1N1CCN(S(=O)(=O)c2ccc3c(c2)CC(C)N3C(=O)C2CCC2)CC1 (stereo not given) | inactive: -25.9% | – |
| CCCCNC(=O)c1ccccc1NC(=O)CCSc1ccccc1 | – | inconclusive [inhibitor, single point] |
| COc1ccc(-c2nn3c(-c4ccccc4C)nnc3c3ccccc23)cc1 | – | inconclusive [inhibitor, single point] |
